Data reported in a collection of fitness landscapes (doi:10.1016/j.celrep.2020.107928).
The full ranking holds about 81,000 sequences; the median of “one-hybrid fitness for binding NBS DNA” is about -0.1, and the highest 2% start at about 0.36. The list shows a part of the results.

B1: Caulobacter ParB omega fusion; a variant is named by its letters at X, in order, B8GW30 (parent)
chain: MESVVVGEPGMSEGRRGLGRGLSALLGEVDAAPAQAPGEQLGGSREAPIEILQRNPDQPRRTFREEDLEDLSNSIREKGVLQPILVRPSPDTAGEYQIVAGERAWRAAQRAGLKTVPIMVRELDDLAVLEIGIIENVQRADLNVLEEALSYKVLMEKFERTQENIAQTIGKSXSHVANXMRLLXLPDEVQSYLVSGELTAXHARAIAAAADPVALAKQIIEGGLSVRETEALARKAPNLSAGKSKGGRPPRVKDTDTQALESDLSSVLGLDVSIDHRGSTGTLTITYATLEQLDDLCNRLTRGI

Variants of: B1
Experiment: one-hybrid fitness for binding NBS DNA (the Noc-binding site; scaled: cognate 1, non-cognate 0); higher = stronger binding
Details: with NBS DNA site
Summary of the method: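 Fitness here means the log change in variant-to-wild-type read ratio between plasmids sequenced before and after selection. That scale was set so cognate equals 1 and non-cognate equals 0. The selection was a bacterial one-hybrid screen of Caulobacter ParB libraries, four specificity codons randomised, in E. coli USO carrying a HIS3 reporter with the site 19 bp from the promoter, grown 48 hours at 37°C on M9-minus-histidine with 0.1 mM IPTG and 5 mM 3-AT.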

| Variant | one-hybrid fitness for binding NBS DNA |
| --- | --- |
| RVSW | ≤ 0.2 |
| HCTP | ≤ 0.2 |
| CQHY | ≤ 0.2 |
| RKYT | 0.643 |
| LLVD | ≤ 0.2 |
| RAAA | ≤ 0.2 |
| RHSQ | ≤ 0.2 |
| RISI | ≤ 0.2 |
| KNGR | ≤ 0.2 |
| GLVS | ≤ 0.2 |
| DHCK | ≤ 0.2 |
| VQLN | ≤ 0.2 |
| IEPR | 0.427 |
| AAPL | ≤ 0.2 |
| KPIT | ≤ 0.2 |
| DKVQ | ≤ 0.2 |
| GGLG | ≤ 0.2 |
| HLSF | ≤ 0.2 |
| VPFF | ≤ 0.2 |
| MVHW | ≤ 0.2 |
| TDAA | ≤ 0.2 |
| PQFC | ≤ 0.2 |
| HGDN | ≤ 0.2 |
| LHWV | ≤ 0.2 |
| QREV | ≤ 0.2 |
| QFCS | ≤ 0.2 |

| Variant | one-hybrid fitness for binding NBS DNA |
| --- | --- |
| RILK | ≤ 0.2 |
| SADK | ≤ 0.2 |
| AEYA | ≤ 0.2 |
| LSSW | ≤ 0.2 |
| SEQC | ≤ 0.2 |
| QTPW | ≤ 0.2 |
| TIMR | ≤ 0.2 |
| NRQT | ≤ 0.2 |
| NEWS | ≤ 0.2 |
| EPGN | ≤ 0.2 |
| FLDS | ≤ 0.2 |
| TSRV | ≤ 0.2 |
| ISIS | ≤ 0.2 |
| LMHC | ≤ 0.2 |
| FTLR | ≤ 0.2 |
| YGDC | ≤ 0.2 |
| SYAT | ≤ 0.2 |
| AVVD | ≤ 0.2 |
| PKQG | ≤ 0.2 |
| ALDQ | ≤ 0.2 |
| NRRV | ≤ 0.2 |
| SSQW | ≤ 0.2 |
| YKRL | ≤ 0.2 |
| WWPY | ≤ 0.2 |
| HLTW | ≤ 0.2 |
| YVWI | ≤ 0.2 |

| Variant | one-hybrid fitness for binding NBS DNA |
| --- | --- |
| QNDR | ≤ 0.2 |
| DCRN | ≤ 0.2 |
| WAAG | ≤ 0.2 |
| LPSS | ≤ 0.2 |
| HRLR | 0.213 |
| HGLE | ≤ 0.2 |
| WCKY | ≤ 0.2 |
| PTCG | ≤ 0.2 |
| PDKG | ≤ 0.2 |
| TDAY | ≤ 0.2 |
| VQCG | ≤ 0.2 |
| HYST | ≤ 0.2 |
| SNCS | ≤ 0.2 |
| TWLR | ≤ 0.2 |
| WKSM | ≤ 0.2 |
| EYGF | ≤ 0.2 |
| IDNA | ≤ 0.2 |
| LGTG | ≤ 0.2 |
| RKHD | ≤ 0.2 |
| LIDR | ≤ 0.2 |
| DTFR | ≤ 0.2 |
| QKNR | 0.747 |
| IAPT | ≤ 0.2 |
| SQNG | ≤ 0.2 |
| QYTT | 0.401 |
| FLLM | ≤ 0.2 |

| Variant | one-hybrid fitness for binding NBS DNA |
| --- | --- |
| AWHR | ≤ 0.2 |
| TLYC | ≤ 0.2 |
| QDNS | ≤ 0.2 |
| LYAT | ≤ 0.2 |
| DGVI | ≤ 0.2 |
| QETH | ≤ 0.2 |
| DPNF | ≤ 0.2 |
| SHPW | ≤ 0.2 |
| RTTF | ≤ 0.2 |
| QPYL | ≤ 0.2 |
| TEVL | ≤ 0.2 |
| LFTI | ≤ 0.2 |
| RWHQ | ≤ 0.2 |
| ENGR | ≤ 0.2 |
| NSKG | ≤ 0.2 |
| NAWS | ≤ 0.2 |
| CRKL | ≤ 0.2 |
| SRVG | ≤ 0.2 |
| ITRY | ≤ 0.2 |
| DLNS | ≤ 0.2 |
| RICG | ≤ 0.2 |
| IVTR | ≤ 0.2 |
| YPHH | ≤ 0.2 |
| IFRT | ≤ 0.2 |
| PEKV | ≤ 0.2 |
| YNNH | ≤ 0.2 |

| Variant | one-hybrid fitness for binding NBS DNA |
| --- | --- |
| SVQR | ≤ 0.2 |
| ITAL | ≤ 0.2 |
| RQHI | ≤ 0.2 |
| KSHV | ≤ 0.2 |
| ISYR | ≤ 0.2 |
| CYLL | ≤ 0.2 |
| CRPK | ≤ 0.2 |
| TTKF | ≤ 0.2 |
| RRGA | 0.664 |
| MIVW | ≤ 0.2 |
| AAQC | ≤ 0.2 |
| KARS | ≤ 0.2 |
| VCSH | ≤ 0.2 |
| MWYC | ≤ 0.2 |
| RDIW | ≤ 0.2 |
| AQQL | ≤ 0.2 |
| PRWT | ≤ 0.2 |
| MRHG | ≤ 0.2 |
| KIPN | ≤ 0.2 |
| PKEC | ≤ 0.2 |
| GCTP | ≤ 0.2 |
| GKLG | ≤ 0.2 |
| PDQR | ≤ 0.2 |
| RCWY | ≤ 0.2 |
| LLAW | ≤ 0.2 |
| CDTF | ≤ 0.2 |

| Variant | one-hybrid fitness for binding NBS DNA |
| --- | --- |
| DALL | ≤ 0.2 |
| FSDI | ≤ 0.2 |
| WFAS | ≤ 0.2 |
| NSRN | ≤ 0.2 |
| CPPT | ≤ 0.2 |
| LFLC | ≤ 0.2 |
| PTKM | ≤ 0.2 |
| RTFS | 0.339 |
| WKLD | ≤ 0.2 |
| YNRF | ≤ 0.2 |
| THTL | ≤ 0.2 |
| CFPH | ≤ 0.2 |
| RYLM | ≤ 0.2 |
| DQCG | ≤ 0.2 |
| FLFI | ≤ 0.2 |
| GKSY | ≤ 0.2 |
| TASL | ≤ 0.2 |
| QMMY | ≤ 0.2 |
| GFLW | ≤ 0.2 |
| RPVM | ≤ 0.2 |
| ATMF | ≤ 0.2 |
| THEY | ≤ 0.2 |
| TRQT | 0.327 |
